# Experimental data reported in the RNAGym collection of RNA variant scans (doi:10.1073/pnas.2313332121).
# Variants at the floor of the assay are shown more often than the library holds them.
# B1: TPR 5TU (parent)
# chain: GGAUCUUCUCGAUCUAACAAAAAAGACAAAUCUGCCACAAAGCUUGAGAGCAUCUUCGGAUGCAGAGGCGGCAGCCUUCGGUGGCGCGAUAGCGCCAACGUUCUCAACUAUGACACGCAAAACGCGUGCUCCGUUGAAUGGAGUUUAUCAUG
# Variants of: B1
# Experiment: polymerase ribozyme fitness, log enrichment relative to wild type (log ratio); higher = more active; in vitro selection for triplet polymerase activity
# How it was run: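 Mutant libraries for each subunit of a heterodimeric triplet polymerase ribozyme were made by PCR and then transcribed. Each library underwent one round of in vitro selection in triplicate: annealing with a biotinylated primer, the partner subunit and triplets, frozen incubation at −7 °C, gel excision of extended constructs, streptavidin-bead capture and RT-PCR. Input and output libraries were Illumina-sequenced, and only genotypes with ≥10 input reads and ≥1 read per output were kept. Fitness is the logarithm, base 2, of genotype enrichment over wild-type enrichment, computed from inverse-variance-weighted replicate averages.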
row,Variant,polymerase ribozyme fitness (log ratio)
1,A12C C14U A22C U61G G65A G86A C93U U134G,≤ -4.2
2,A12U U77G G83U G88U A106C,≤ -4.2
3,G11U C54A,-2.47
4,A12G C27G U33G C38U G42C G48A G50U G94C A119U,≤ -4.2
5,U13G A52G,-1.06
6,A12C A20U A22G G94A A110G C116G G141U G152A,≤ -4.2
7,A12U G58C C87G U102G G141U,≤ -4.2
8,U13A A20U U77A,≤ -4.2
9,U13A C14G A19U U53A U55A G86C U135A,≤ -4.2
10,A12C C27A C36U C72G C118A,≤ -4.2
11,A12U C36A A66U C95G A120U,≤ -4.2
12,U13G A30U U53A A60C C76G C95G C99U G141A,≤ -4.2
13,G11U A24U C51U C76U C93G C99G A121U A138U G140C,≤ -4.2
14,U13C C51G C54G C75U G83U,≤ -4.2
15,A12C C18G U33G G81C A91C C95A A113C A115C,≤ -4.2
16,U13A A29U A39U U53G C85A G126C C132G U135C,≤ -4.2
17,A12C A20U U61A G62U A89C G92A A107C A110G,≤ -4.2
18,A12G A20U C35G C69G G141A C149A,≤ -4.2
19,G11U A19U A28C A52C C85U A97U,≤ -4.2
20,A12G C43A C87U A91U G126A G143C,≤ -4.2
21,A12C A52C C54U U145A,-3.53

row,Variant,polymerase ribozyme fitness (log ratio)
1,A12C A52U G71A C87U,≤ -4.2
2,U13A G84A G136U,-2.59
3,U13C A17C G67C U77G A89C A120C,≤ -4.2
4,U13A C27A C54A U56A G65C G92C A97G U101G G140U,≤ -4.2
5,A12U U61G C93U G94A U144G,-2.83
6,A12U G94A,-1.47
7,G11U U13A C14G C76G C79G A98U,≤ -4.2
8,U13A G94A U102G,≤ -4.2
9,A12C A23U A24C G58A C103G U144G,≤ -4.2
10,U13G C14G U53C U55A C96U C114U G152U,≤ -4.2
11,A12C C57U A64C U82G C96U A98U U101G,≤ -4.2
12,U13G C36U A107G U145C,≤ -4.2
13,A12C A89G C95U A97C A120G U135G,≤ -4.2
14,U13A A21U G46U G48C C54U C79U G92A G100U C103G G133A U151G,≤ -4.2
15,A12G A16U C85A A115G U135G U144A,≤ -4.2
16,U13C U53A A91U A107U,≤ -4.2
17,A12U C105G,-2.43
18,A12G A20U A29U U53G A66C,-4.16
19,A12G A23G U90G U146A,≤ -4.2
20,A12G U45A G48U A52U C125G,≤ -4.2
21,A12U A41C G92A A142C,≤ -4.2

row,Variant,polymerase ribozyme fitness (log ratio)
1,A12C C125U,-0.492
2,U13A A22C A23U A52G C116U A120C,≤ -4.2
3,A12U C85U A97G C116U,-1.53
4,A12C A47U U53A C57G U78A,≤ -4.2
5,A12G C54G G88C C105U,≤ -4.2
6,U13G A20C A24C C27G A60C C93A U104G C116G G126U G141U,≤ -4.2
7,U13G A47G U55A C87U C96U U139G,≤ -4.2
8,A12U G59U C69A C96U,-2.45
9,A12U A17C U55A U56C G86A A115G,≤ -4.2
10,U13G A28G U53A A64U G141U U145G G152A,≤ -4.2
11,G11U A29C A89C C125U,-4.16
12,U13G C18G C54U G59C C99U U102G,≤ -4.2
13,A12U G59C U61G G88C C103G G117U U135G,≤ -4.2
14,U13G A16U C85U U145G,-3.16
15,U13A C14A A60G C93U,-2.5
16,A12U U56A,-0.683
17,U13C C27U A37G C54U A106G U109G C123G G124A,-3.57
18,A12U A52C G84A A98G,-2.65
19,A12G G81A G92A C114A G152U,≤ -4.2
20,A12G A20G A60G,-0.113
21,A12U C18U A19G U56G A60U C76G C108U C114G,≤ -4.2

row,Variant,polymerase ribozyme fitness (log ratio)
1,A12C,0.0783
2,A12U,-0.161
3,A12G,0.116
4,A12G C63A C69G U90A C103A,≤ -4.2
5,U13A U135A,-0.229
6,U13A U61A C85U,-2.01
7,U13G A89U C95U C99G C149U,≤ -4.2
8,G11U C14G A21G A22G U55C A60G C85G A89C,≤ -4.2
9,U13A A20G G74A C76A G84A A115G C125A,≤ -4.2
10,A12U A40G A41C C57A G133U A150C,≤ -4.2
11,U13G A37U A64G G68C A97G G136U C149U,≤ -4.2
12,A12C U55A A91G A110U,≤ -4.2
13,U13G C36U A47U G84A A122G A138U,≤ -4.2
14,A12G A17G A19G U53A U55A G81U G84U G117U,-4.04
15,U13G A24U C85A C108A G140C U146G A147U,≤ -4.2
16,G11U C14G A21C A28U G71A C85U U104G G140C,≤ -4.2
17,U13A A17U C76A G84A U111A A119U A138G,≤ -4.2
18,U13G C43U G136U,≤ -4.2
19,A12U G83A U90C,≤ -4.2
20,U13G C63U U104G A106U,≤ -4.2
